# Results as given in PubChem BioAssay AID504339 (National Center for Advancing Translational Sciences (NCATS), 2011).
# Several values for one entry are separate records, joined by “and”; a condition that tells them apart may be missing. Equal values may be shown once. The campaign covered roughly 390,000 compounds. About 17,000 (4.4%) were called active. Inconclusive results, whose numbers are uncertain, are shown with a selection of clear calls. Calls come from the whole dose curve; as a rule, active = well fitted inhibition curve with a large enough effect; inconclusive = small, poorly fitted or top-dose-only effect; inactive = no such curve, though single readings can be large or run the other way. Potencies beside an inconclusive call are fits to weak or partial responses and may not hold up.
# Target: Lysine-specific demethylase 4A (Homo sapiens) (UniProt O75164)
# Test: qHTS Assay for Inhibitors of JMJD2A-Tudor Domain; note: nearly all actives have a fitted effect of over 50% in size
# Conditions: AlphaScreen JMJD2A-Tudor / H3K4me3 peptide binding; activity change, negative = inhibition: at 114 µM (top of the series)
# % is set by controls: 0 for no effect and ±100 for the full control effect; potency is the fitted concentration of half-maximal effect; tags give direction and shape of the fitted curve.
# Chain of UniProt O75164 (O75164 whole entry, looked up, the tested form may be a part): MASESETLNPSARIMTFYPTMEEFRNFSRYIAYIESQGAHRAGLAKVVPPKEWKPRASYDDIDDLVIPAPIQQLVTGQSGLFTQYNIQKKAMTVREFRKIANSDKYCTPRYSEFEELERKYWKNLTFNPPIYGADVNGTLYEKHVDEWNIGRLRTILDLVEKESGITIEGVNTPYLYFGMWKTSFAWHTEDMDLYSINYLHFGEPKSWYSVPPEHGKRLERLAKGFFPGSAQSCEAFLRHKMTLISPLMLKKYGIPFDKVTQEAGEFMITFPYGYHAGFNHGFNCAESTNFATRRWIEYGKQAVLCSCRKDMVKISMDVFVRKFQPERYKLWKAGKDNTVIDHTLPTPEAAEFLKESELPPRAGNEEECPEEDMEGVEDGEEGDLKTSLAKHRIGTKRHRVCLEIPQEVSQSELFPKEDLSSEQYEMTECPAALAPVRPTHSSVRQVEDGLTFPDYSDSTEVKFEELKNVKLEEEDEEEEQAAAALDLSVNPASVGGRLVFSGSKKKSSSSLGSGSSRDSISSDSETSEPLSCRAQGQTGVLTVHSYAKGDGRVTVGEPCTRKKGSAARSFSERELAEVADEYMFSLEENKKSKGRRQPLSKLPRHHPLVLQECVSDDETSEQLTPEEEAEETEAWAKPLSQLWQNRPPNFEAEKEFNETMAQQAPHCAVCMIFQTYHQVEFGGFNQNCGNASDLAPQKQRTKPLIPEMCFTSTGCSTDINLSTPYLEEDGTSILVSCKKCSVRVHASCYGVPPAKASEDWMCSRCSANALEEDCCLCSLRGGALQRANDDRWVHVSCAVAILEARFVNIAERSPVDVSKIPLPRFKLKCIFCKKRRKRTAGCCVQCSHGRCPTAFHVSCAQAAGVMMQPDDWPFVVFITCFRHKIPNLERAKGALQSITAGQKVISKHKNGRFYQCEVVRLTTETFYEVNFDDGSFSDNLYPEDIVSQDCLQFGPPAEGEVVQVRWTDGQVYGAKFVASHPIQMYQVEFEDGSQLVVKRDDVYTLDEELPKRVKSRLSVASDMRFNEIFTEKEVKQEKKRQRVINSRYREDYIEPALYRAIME
Compound,Potency,"activity change, negative = inhibition"
CN(C)c1cc(-c2ccc(Cl)c(Cl)c2)oc(=O)c1Cl,"inconclusive: 63.1 µM [inhibitor, partial curve, poor fit]",
COCCCN1C(=O)C(=O)/C(=C(/O)c2ccc3c(c2)OCCO3)C1c1ccc(C(=O)OC)cc1 (stereo not given),"inconclusive: 79.4 µM [inhibitor, partial curve]",
CSc1ncc(Cl)c(C(=O)C(C#N)c2nc3c(C)cc(C)cc3c(=O)[nH]2)n1 (stereo not given),"inconclusive: 56.2 µM [inhibitor, partial curve]",
CC(C)Cc1nnc(NS(=O)(=O)c2ccc([N+](=O)[O-])cc2)s1,,inactive: -12.2%
COc1ccc(-n2ccnc2CN2CCCC(CO)(Cc3cccc(OC)c3)C2)cc1 (stereo not given),"inconclusive: 50.1 µM [inhibitor, partial curve]",
CCOC(=O)C1CCCN(C(=O)CCNS(=O)(=O)c2ccc3c(c2)CCC(=O)N3)C1 (stereo not given),"inconclusive: 39.8 µM [inhibitor, single point]",
CCn1cc(C(=O)NCCN(CC(C)C)CC(C)C)c(=O)c2cc(S(=O)(=O)N(C)C3CCCCC3)ccc21,,inactive: -11.7%
COc1cc([N+](=O)[O-])ccc1NC(=O)N1CCC2(CC1)Nc1ccccc1-n1cccc12,"inconclusive: 10 µM [inhibitor, full curve]",
Cc1cc2oc(=O)cc(CN3CCCCC3C)c2cc1C(C)C (stereo not given),,inactive: 8.9%
CCN(CC)c1ccc(NC(=O)c2cc(OC)cc(OC)c2)c(C)c1,"inconclusive: 56.2 µM [inhibitor, partial curve]",
COc1ccc(-c2noc(CCC(=O)N3CCN(c4cccc(OC)c4)CC3)n2)cc1,"inconclusive: 63.1 µM [inhibitor, partial curve, poor fit]",
Cc1ccc(C)c(/C(O)=C2\C(=O)C(=O)N(Cc3cccnc3)C2c2cccnc2)c1 (stereo not given),,inactive: -21.9%
CS(=O)(=O)NCCn1ccc2ccccc21,"inconclusive: 39.8 µM [inhibitor, partial curve]",
CCOc1ccc(CCNC(=O)c2cc3sccc3n2CC)cc1OCC,"inconclusive: 39.8 µM [inhibitor, full curve] and inconclusive: 39.8 µM [inhibitor, partial curve]",
COc1ccc2c(c1)C(c1ccccc1)=NNC(c1ccco1)=N2,"inconclusive: 50.1 µM [inhibitor, partial curve]",
Fc1ccc(CSc2nncn3c2cc2occc23)c(Cl)c1,,inactive: -30.4%
N#Cc1c(N)n(CCOC(=O)c2cccc([N+](=O)[O-])c2)c2nc3ccccc3nc12,,inactive: -4.42%
O=C(O)CCc1ccc(-c2ccc(F)cc2)n1CC(=O)O,,inactive: -28.6%
COc1ccc(Cn2c(-c3ccc(OC)cc3)n[nH]c2=S)cc1,"inconclusive: 8.91 µM [inhibitor, full curve, poor fit]",
CC(C)=CCc1c(O)ccc(C2COc3c(CC=C(C)C)c(O)cc(O)c3C2=O)c1O (stereo not given),"inconclusive: 50.1 µM [inhibitor, partial curve]",
COCCSc1ccccc1C(=O)Nc1ccc(Cl)cc1,"inconclusive: 89.1 µM [inhibitor, single point]",
COc1ccc(OC)c(Nc2cc(C(=O)NCCCN3CCOCC3)c3ccccc3n2)c1,"inconclusive: 79.4 µM [inhibitor, partial curve]",

Compound,Potency,"activity change, negative = inhibition"
O=C(O)CCc1ccc(NCc2cccc(Oc3ccccc3)c2)cc1,"inconclusive: 63.1 µM [inhibitor, partial curve, poor fit]",
CCCCCOc1ccccc1CN1C(=O)C(=O)c2cc(C)ccc21,active: 17.8 µM,
O=C(NCc1ccco1)c1ccc2ccccc2c1,"inconclusive: 89.1 µM [inhibitor, partial curve]",
COc1ccc(OC)c(-c2csc(NC(=O)CSc3ccc([N+](=O)[O-])cc3)n2)c1,"inconclusive: 10 µM [inhibitor, full curve]",
N#Cc1cnc(NN)nc1,active: 0.794 µM,
O=C(NCCCN1CCN(Cc2ccccc2)CC1)C1CCN(c2nnc(-n3cccc3)s2)CC1,"inconclusive: 56.2 µM [inhibitor, partial curve, poor fit]",
O=[N+]([O-])c1cc([N+](=O)[O-])c2c(=Nc3ccccc3)n(-c3ccccc3)n(O)c2c1,"inconclusive: 35.5 µM [inhibitor, partial curve]",
COCC(=O)Nc1nc2n(n1)C(c1ccccc1)CC(c1ccc(OC)cc1)N2 (stereo not given),active: 56.2 µM,
COc1ccc(NC(=O)c2c(NCc3ccc(OC)c(OC)c3OC)sc3c2CCC3)c(OC)c1,"inconclusive: 50.1 µM [inhibitor, partial curve]",
CN(C)CCN(C(=O)c1ccc2c(c1)OCCO2)c1nc2cc3c(cc2s1)OCO3,"inconclusive: 25.1 µM [inhibitor, full curve]",
CCOC(=O)c1ccc(NCc2ccc(N(C)C)cc2)cc1,"inconclusive: 22.4 µM [inhibitor, full curve]",
Cc1cc2oc(C(=O)Nc3ccc(S(=O)(=O)N4CCC(C)CC4)cc3)cc(=O)c2cc1C,,inactive: 8.68%
CSCC(=O)N1CCC(n2nccc2NC(=O)c2ccc3c(c2)OCO3)CC1,"inconclusive: 56.2 µM [inhibitor, partial curve]",
O=C(O)c1cccc2c(-c3ccccc3)c(-c3ccccc3)[nH]c12,"inconclusive: 44.7 µM [inhibitor, partial curve]",
COc1ccc(-c2ccc(CNCCCSc3nnnn3C)o2)cc1Cl,"inconclusive: 56.2 µM [inhibitor, partial curve]",
CCCCN(C)CCNC(=O)c1ccc(Cn2c(=S)[nH]c3ccc(Br)cc3c2=O)cc1,,inconclusive: -40.9% [inhibitor]
CCN(CC)C(=O)[C@H]1C[C@H](CC(=O)NCc2ccco2)C(=O)N2CCc3c([nH]c4cc(-c5ccco5)ccc34)[C@]12C,active: 50.1 µM,
CCOCCCNc1nc(=S)[nH]c2cc(OC)c(OC)cc12,"inconclusive: 89.1 µM [inhibitor, single point]",
COc1ccc(N(C)C(=O)c2ccc3nc(-c4ccccc4)c(-c4ccccc4)nc3c2)cc1,"inconclusive: 15.8 µM [inhibitor, partial curve]",
Cc1ccc(CNC(=O)C2CCC(CNS(=O)(=O)c3ccc(C)cc3)CC2)cc1 (stereo not given),,inactive: -13.5%
Cc1ccc(NC(=O)CN(C)CCOc2ccccc2)c([N+](=O)[O-])c1,"inconclusive: 79.4 µM [inhibitor, partial curve]",
CC(/C=N/n1c(-c2ccco2)n[nH]c1=S)=C\c1ccco1,active: 44.7 µM,

Compound,Potency,"activity change, negative = inhibition"
COc1ccc(-n2ccnc2SCC(=O)Nc2cccc(OC)c2)cc1,"inconclusive: 44.7 µM [inhibitor, partial curve]",
COc1ccc(S(=O)(=O)N2CCC(N3CCN(c4ccccc4OC)CC3)CC2)cc1,active: 1.78 µM,
Cc1cc(OC(C)C(=O)N2CCC(c3nc4ccccc4o3)CC2)ccc1Cl (stereo not given),"inconclusive: 44.7 µM [inhibitor, partial curve]",
CCc1noc(C)c1C(=O)OCC(=O)N(CCOC)c1c(N)n(Cc2ccccc2)c(=O)[nH]c1=O,"inconclusive: 79.4 µM [inhibitor, single point]",
Cc1ccc(S(=O)(=O)c2c(C)nn(-c3ccccc3)c2OC(=O)c2ccc(Br)o2)cc1,"inconclusive: 50.1 µM [inhibitor, partial curve]",
COc1ccc(COC(=O)CCc2cc(OC)c(OC)c(OC)c2)cc1F,"inconclusive: 50.1 µM [inhibitor, partial curve]",
COc1ccc(S(=O)(=O)Cc2ccc(C(=O)N3CCN(c4cccc(C)c4C)CC3)o2)cc1,"inconclusive: 56.2 µM [inhibitor, partial curve]",
O=C(c1ccccc1-n1cccn1)N1CCc2c([nH]c3ccccc23)C1c1ccccn1 (stereo not given),"inconclusive: 44.7 µM [inhibitor, partial curve]",
COc1ccccc1NC(=O)CSc1ccc(-c2ccccn2)nn1,active: 20 µM and active: 3.55 µM,
Cc1ccc(N(C)C(CNS(=O)(=O)c2ccccc2)c2ccccc2)cc1 (stereo not given),"inconclusive: 39.8 µM [inhibitor, partial curve]",
O=C1c2cc(Cl)ccc2-c2c(O)cc(Cl)cc21,"inconclusive: 14.1 µM [inhibitor, partial curve]",
C=CCN(CC=C)CCOc1ccccc1,active: 3.55 µM,
COc1cccc(OC(=O)CSc2nnc(-c3cccs3)o2)c1,,inactive: -10.9%
CCCCN(C(=O)c1ccc(S(=O)(=O)N(C)c2ccccc2)cc1)c1c(N)n(CCC)c(=O)[nH]c1=O,,inactive: -15.9%
OC(COC(c1ccccc1)c1ccccc1)CN1CCOCC1 (stereo not given),"inconclusive: 35.5 µM [inhibitor, full curve]",
CCN(CC)c1ccc(C=C2C(=O)OC(C)(C(C)(C)C)OC2=O)cc1 (stereo not given),"inconclusive: 3.98 µM [inhibitor, full curve]",
COc1ccc(N2CCN(C3(c4ccccc4)C(=O)c4ccccc4C3=O)CC2)cc1,active: 8.91 µM,
CC(C)[C@@H](C(=O)NC1CCCC1)N1C(=O)N2CCc3c([nH]c4ccccc34)[C@@]2(C)C1=O,"inconclusive: 56.2 µM [inhibitor, partial curve]",
CCC(c1nnnn1Cc1ccc(OC)cc1)N1CCN(c2ccc(OC)cc2)CC1 (stereo not given),"inconclusive: 50.1 µM [inhibitor, partial curve]",
NS(=O)(=O)c1ccc(N=Nc2c(-c3ccccc3)[nH]n(-c3nc(-c4ccccc4)cs3)c2=O)cc1,"inconclusive: 11.2 µM [inhibitor, full curve]",
CCCCCCNC(=O)c1c[nH]c2ccc(S(=O)(=O)N(C)c3ccc(C(C)C)cc3)cc2c1=O,"inconclusive: 56.2 µM [inhibitor, partial curve]",
